Assay results: PubChem BioAssay AID2147 (National Center for Advancing Translational Sciences (NCATS), 2009)
Several values for one entry are separate records, joined by “and”; a condition that tells them apart may be missing. Identical values can stand only once. About 3,600 (1.6%) of roughly 230,000 compounds were called active. The inconclusive results got no clear call from the source; some entries with a clear call stand among them for comparison. The call rests on the fitted dose curve; in most records, active means well fitted inhibition curve with a large enough effect (not every such curve was filed as active); inconclusive means small, poorly fitted or top-dose-only effect, or another doubt; inactive means no such curve, though single readings can be large or run the other way. Where the call is inconclusive, the potency comes from a doubtful curve fit.
Further: nearly all actives have a fitted effect of over 50% in size.
Potency means the concentration at half of the fitted maximal effect; tags describe the fitted curve by direction and shape.
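Wherever activity change, negative = inhibition is given: 0% = wells with enzyme and -100% = buffer wells without enzyme.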

Each compound was assayed against Lysine-specific demethylase 4E (Homo sapiens) (UniProt B2RXH2) (assay: qHTS Assay for Inhibitors of Human Jumonji Domain Containing 2E (JMJD2E)). Settings: JMJD2E catalytic domain, FDH-coupled NADH fluorescence (FDH is formaldehyde dehydrogenase); series mostly up to 57.1 µM; activity change, negative = inhibition: at the top concentration.
Chain of UniProt B2RXH2 (B2RXH2 whole entry, looked up, the tested form may be a part): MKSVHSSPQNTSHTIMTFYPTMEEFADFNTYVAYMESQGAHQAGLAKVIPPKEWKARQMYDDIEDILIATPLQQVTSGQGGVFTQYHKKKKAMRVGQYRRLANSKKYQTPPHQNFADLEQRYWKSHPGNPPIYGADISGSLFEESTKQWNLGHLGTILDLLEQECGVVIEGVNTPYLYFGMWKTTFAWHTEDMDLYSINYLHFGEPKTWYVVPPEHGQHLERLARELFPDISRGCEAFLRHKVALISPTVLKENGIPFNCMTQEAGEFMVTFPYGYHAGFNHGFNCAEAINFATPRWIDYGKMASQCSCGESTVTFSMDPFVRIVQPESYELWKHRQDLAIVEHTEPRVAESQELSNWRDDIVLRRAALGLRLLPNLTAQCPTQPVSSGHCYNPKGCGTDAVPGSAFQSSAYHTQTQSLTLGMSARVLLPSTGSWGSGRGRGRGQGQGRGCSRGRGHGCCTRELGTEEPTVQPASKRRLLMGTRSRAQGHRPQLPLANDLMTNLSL
In the case of `CCSc1nc(-c2ccc(OC)cc2)cc(-c2ccccc2)c1C#N`, the Potency is reported as inconclusive: 35.5 µM [inhibitor, single point]. For `COCCCNc1nc(N)c([N+](=O)[O-])c(Nc2cc(OC)ccc2OC)n1`, the “activity change, negative = inhibition” value was inactive: 5.64%. In the case of `O=C(CCCn1c(=O)[nH]c2cc(Cl)ccc2c1=O)NCCCN1CCCC1`, the “activity change, negative = inhibition” value is reported as inactive: -4.52%. `Cc1cc(-c2n[nH]c(=S)n2/N=C/c2sccc2C)n[nH]1` was tested, and the “activity change, negative = inhibition” value was inactive: -7.57%. In the case of `C/C(=N/NC(=O)c1cccs1)c1cccc(NC(=O)C2CC2)c1`, the Potency is reported as inconclusive: 39.8 µM [inhibitor, single point]. In the case of `COc1ccc(CN(Cc2cc3cc(OC)c(OC)cc3[nH]c2=O)C(=O)NC2CCCCC2)cc1`, the Potency is reported as inconclusive: 4.47 µM [inhibitor, single point]. With `Cc1ccnc(N2CCC(C(=O)Nc3ccc4c(c3)OCCO4)CC2)n1` the Potency was inconclusive: 25.1 µM [inhibitor, partial curve]. For `CCN1CCN(c2cc(C)c3cc(NC(=S)N4CCOCC4)ccc3n2)CC1`, the Potency was inconclusive: 14.1 µM [inhibitor, partial curve]. For `O=C(O)c1cc2nccc(-c3ccc(F)cc3)n2n1`, the Potency was inconclusive: 31.6 µM [inhibitor, partial curve]. With `CCOC(=O)c1c(NC(=O)CCC(=O)N2CCOCC2)sc2c1CC(C)(C)OC2` the “activity change, negative = inhibition” value was inactive: -22.6%. `CN(c1cccc(Cl)c1)S(=O)(=O)c1cccc(C(=O)Nc2nc3ccccc3[nH]2)c1` was tested, and the Potency was inconclusive: 35.5 µM [inhibitor, single point]. For `CCOC(=O)c1c(C)oc2ccc(NS(=O)(=O)c3ccc4c5c(cccc35)C(=O)N4)cc12`, the Potency was inconclusive: 22.4 µM [inhibitor, partial curve]. `CC(C)(C)NC(=O)NC(=O)CN1CCN(c2ccc(O)cc2)CC1` was tested, and the Potency was inconclusive: 22.4 µM [inhibitor, single point]. For `Cc1ccc2c(N)c(C)ccc2c1`, the Potency was inconclusive: 25.1 µM [inhibitor, partial curve]. With `COc1ccc2c(c1)-c1nc(/N=C/c3c(O)ccc4ccccc34)sc1CC2` the Potency was inconclusive: 39.8 µM [inhibitor, single point]. With `COc1cc2c(cc1NC(=O)CSc1nnc(Cc3cccs3)n1Cc1ccco1)oc1ccccc12` the “activity change, negative = inhibition” value was inactive: -18.3%. In the case of `CCOC(=O)N1CCN(C(=O)c2cnn3ccccc23)CC1`, the Potency is reported as inconclusive: 39.8 µM [inhibitor, single point]. With `CCOC(=O)N1CCN(C(=O)CSCC(=O)Nc2nc(-c3ccc(-c4ccccc4)cc3)cs2)CC1` the Potency was active: 35.5 µM. `O=C(O)c1cc(-c2ccc(/C=N/Nc3ccc(Cl)cc3)o2)ccc1Cl` was tested, and the Potency was inconclusive: 28.2 µM [inhibitor, partial curve]. With `COc1cc(/C=N/N=C2/NC(=O)C(c3ccccc3)S2)ccc1O` (configuration not stated) the Potency was inconclusive: 39.8 µM [inhibitor, single point]. `Cc1ccc(NC(=O)CN2C(=O)S/C(=C/c3ccc(O)c([N+](=O)[O-])c3)C2=O)cc1C` was tested, and the Potency was inconclusive: 39.8 µM [inhibitor, single point]. With `CCC1c2ccc(C)n2CCN1C(=O)Nc1ccc(F)cc1` (configuration not stated) the Potency was inconclusive: 25.1 µM [inhibitor, partial curve]. `Cc1ccc(C2=N/C(=C\N3CCCCC3)C(=O)O2)cc1` was tested, and the “activity change, negative = inhibition” value was inactive: -22.5%. `CCOc1cc2[nH]c(=O)n(CCCCC(=O)N3CCCCCC3)c(=O)c2cc1OCC` was tested, and the Potency was inconclusive: 25.1 µM [inhibitor, partial curve]. `O=C(NCc1ccco1)c1cc2c(s1)CCCCC2` was tested, and the Potency was inconclusive: 35.5 µM [inhibitor, single point]. In the case of `Cc1nc2ccc(NC(=O)c3cncc(Br)c3)cc2s1`, the “activity change, negative = inhibition” value is reported as inactive: -6.13%. With `C=CCN1C(=O)C(CC(=O)O)SC1=Nc1ccc(C(=O)O)cc1` (configuration not stated) the “activity change, negative = inhibition” value was inactive: 1.78%. For `COC(=O)C1=C(C)NC(C)=C(C(=O)OC)C1c1ccc(OC(=O)c2ccco2)cc1`, the Potency was inconclusive: 31.6 µM [inhibitor, partial curve]. For `O=C(COc1ccc2ccc(=O)oc2c1)c1ccccc1`, the Potency was inconclusive: 39.8 µM [inhibitor, single point]. With `CCOC(=O)c1c(-c2ccc(F)cc2)csc1NC(=O)c1c(-c2ccccc2)noc1C` the Potency was inconclusive: 31.6 µM [inhibitor, partial curve]. `COc1ccccc1N1CCN(c2ncnc3c2oc2ccccc23)CC1` was tested, and the “activity change, negative = inhibition” value was inactive: 1.6%. `Cc1ccc(CN2C(=O)c3ccccc3NC2c2ccccn2)cc1` (configuration not stated) was tested, and the Potency was inconclusive: 28.2 µM [inhibitor, partial curve]. For `C=CCSc1nc2sc3c(c2c(=O)n1CC=C)CCc1ccccc1-3`, the “activity change, negative = inhibition” value was inactive: -19%. `Cc1nnc(N/N=C/c2ccco2)n1N` was tested, and the Potency was active: 28.2 µM. For `COC(=O)C1=C(C)NC(=S)NC1/C=C/c1ccccc1` (configuration not stated), the “activity change, negative = inhibition” value was inactive: 7.59%. `CC(=O)CCc1oc2ccc(NC(C)=O)cc2c1-c1ccc(C)o1` was tested, and the Potency was inconclusive: 39.8 µM [inhibitor, single point]. `COC(=O)C1=C(O)/C(=C\c2ccc(CNS(=O)(=O)c3ccccc3)o2)N=C1C` was tested, and the “activity change, negative = inhibition” value was inactive: 0.115%. With `O=C(CSc1ccc(-c2ccccn2)nn1)NCc1ccc(Cl)cc1` the “activity change, negative = inhibition” value was inactive: -3.29%. `Cc1cc(NC(=O)c2cc3ccccc3oc2=O)no1` was tested, and the Potency was inconclusive: 3.98 µM [inhibitor, single point]. `CC(=O)Nc1ccc(OC(=O)c2ccc(Br)c([N+](=O)[O-])c2)cc1` was tested, and the “activity change, negative = inhibition” value was inactive: -9.94%. In the case of `Cc1ccc(-c2ccc(/C=N/NC(=O)Cc3nnc(N)s3)o2)cc1Cl`, the Potency is reported as inconclusive: 25.1 µM [inhibitor, partial curve]. `CN(N=O)C(=O)N[C@H]1[C@@H](O)[C@H](O)[C@H](CO)O[C@@H]1O` was tested, and the Potency was inconclusive: 15.8 µM [inhibitor, single point]. `Fc1ccc(-c2nnc(-c3ccc(Cl)cc3Cl)o2)cc1` was tested, and the Potency was inconclusive: 39.8 µM [inhibitor, single point]. For `CC1(C)Cc2nc3sc4c(N(CCO)CCO)nnnc4c3cc2CO1`, the Potency was inconclusive: 28.2 µM [inhibitor, partial curve]. With `O=C1N(Cc2cccc(Cl)c2)C[C@@H]2C[C@@H](c3c[nH]c4ccccc34)N3CCC[C@@]123` the Potency was inconclusive: 28.2 µM [inhibitor, single point]. In the case of `Cc1ccc(-c2ccc(CCC(=O)O)n2NC(=O)c2ccco2)cc1`, the Potency is reported as inconclusive: 25.1 µM [inhibitor, single point]. With `O=C1CCCC(=O)N1c1ccc(N2CCN(c3ccc([N+](=O)[O-])cc3)CC2)c([N+](=O)[O-])c1` the “activity change, negative = inhibition” value was inactive: 1.62%. `Fc1ccccc1-c1nc2nc3ccccc3nc2n1CC1CCCO1` (configuration not stated) was tested, and the Potency was inconclusive: 22.4 µM [inhibitor, partial curve]. With `COC(=O)c1[nH]nc(C(=O)OC(C)(C)C)c1-c1ccccc1` the “activity change, negative = inhibition” value was inactive: 1.06%. `CCOC(=O)N1CCN(C(=O)Cn2ncn3nc(-c4cccs4)cc3c2=O)CC1` was tested, and the Potency was inconclusive: 28.2 µM [inhibitor, partial curve]. `CN(C)c1ccc(/C=N/NC(=O)CCc2c[nH]c3ccccc23)cc1` was tested, and the Potency was inconclusive: 35.5 µM [inhibitor, partial curve]. With `Fc1ccc(C(Nc2ccccn2)c2c[nH]c3ccccc23)cc1` (configuration not stated) the “activity change, negative = inhibition” value was inactive: -11.6%. `O=S(=O)(Nc1cccc(S(=O)(=O)N2CCOCC2)c1)c1ccc2c(c1)OCCO2` was tested, and the “activity change, negative = inhibition” value was inactive: 0.596%. In the case of `Cc1ccc(C(=O)O)cc1-c1ccc(/C=C2/NC(=O)N(c3ccccc3)C2=O)o1`, the Potency is reported as inconclusive: 28.2 µM [inhibitor, partial curve]. In the case of `COc1ccc(-c2cc3nc(C)cc(C)n3n2)cc1`, the Potency is reported as inconclusive: 28.2 µM [inhibitor, partial curve]. In the case of `Cc1ccc(Cl)cc1N1CCN(CC(O)COC(C)C)CC1` (configuration not stated), the “activity change, negative = inhibition” value is reported as inactive: 8.63%. `CCOC(=O)c1cc2c(n(-c3ccc(C)cc3)c1=O)CCCC2=O` was tested, and the Potency was inconclusive: 35.5 µM [inhibitor, partial curve]. With `COc1ccc(/C=C2\CCC(C3CCCC3)C2=O)cc1Cn1nc(C)cc1C` (configuration not stated) the “activity change, negative = inhibition” value was inactive: 9.98%. `CCCCNC(=O)Cn1cnc2sc(C)c(S(=O)(=O)N3CCN(c4ncccn4)CC3)c2c1=O` was tested, and the “activity change, negative = inhibition” value was inactive: -8.32%. For `O=c1c2c3c(sc2nc(N2CCNCC2)n1CCc1ccccc1)CCCCC3`, the “activity change, negative = inhibition” value was inactive: 1.1%. `CCCCC1=CC2=C(c3ccco3)C(=O)C(C)(OC(=O)c3ccc(OC)cc3)C(=O)C2=CN1CC(C)C` (configuration not stated) was tested, and the Potency was “inactive and inconclusive: 3.55 µM [inhibitor, single point]”. For `Cc1cccc(NS(=O)(=O)c2ccc(Br)s2)n1`, the “activity change, negative = inhibition” value was inactive: -20.9%. `O=c1sc2ccccc2n1Cc1ccccc1` was tested, and the Potency was inconclusive: 7.08 µM [inhibitor, single point]. In the case of `COc1cc(/C=C/C(=O)c2cccc([N+](=O)[O-])c2)cc(OC)c1OC`, the “activity change, negative = inhibition” value is reported as inactive: -1.76%. In the case of `c1ccc(-c2cc3ccccc3nc2N2CCCC2)cc1`, the Potency is reported as inconclusive: 28.2 µM [inhibitor, partial curve]. In the case of `O=C(CSc1ccc(-c2ccccn2)nn1)NCc1ccccc1`, the Potency is reported as inconclusive: 39.8 µM [inhibitor, single point]. With `S=C(NCCc1ccccc1)Nc1cnc2ccccc2c1` the Potency was active: 25.1 µM. For `CS(=O)(=O)N1CCN(c2ccccc2NC(=S)NC(=O)c2ccccc2[N+](=O)[O-])CC1`, the “activity change, negative = inhibition” value was inactive: -18.3%. For `COCCCNC(=O)c1c[nH]c2ccc(S(=O)(=O)N3CCC(C)CC3)cc2c1=O`, the Potency was inconclusive: 35.5 µM [inhibitor, partial curve]. `N#Cc1nc(-c2cccs2)oc1NCc1ccc(Cl)cc1` was tested, and the Potency was inconclusive: 31.6 µM [inhibitor, partial curve]. For `COc1ccc(C(=O)N2CCN(Cc3ccccc3C)CC2)cc1OC`, the Potency was inconclusive: 39.8 µM [inhibitor, single point]. `COc1ccc(-c2cc(-c3ccccc3)n3ncnc3n2)cc1` was tested, and the Potency was inconclusive: 28.2 µM [inhibitor, partial curve].
